As a reminder, the % Inhibition is the relative decrease from the control value, in per cent.

From ChEMBL document CHEMBL4888484, “Replenishing the malaria drug discovery pipeline: Screening and hit evaluation of the MMV Hit Generation Library 1 (HGL1) against asexual blood stage Plasmodium falciparum ,using a nano luciferase reporter read-out” (2022) come the findings set out here.

Hit rate of the full screen: of about 150,000 compounds, about 540 (0.36%) showed an effect of 50% or more. This is one part of the list.

This assay concerns Plasmodium falciparum. The assay is described as follows: Primary screen in NF54 nanoGlo assay, in single point, at 2uM, 72h; a lower Z score goes with more inhibition. Conditions: timepoint 72 hour. Format: functional, Erythrocyte.
With `CC(C)N1CCN(C(=O)COc2ccc3ccccc3c2)CC1`, the “% Inhibition” value was 9% and the Z score is -1.15.

As to `O=C([C@@H]1COCC(=O)N1Cc1cccs1)N1CCC2(CC1)OCCO2`, the “% Inhibition” value was -9% and the Z score turned out to be 1.61.

Regarding `CCN(CC(F)(F)F)C(=O)Nc1ccc2[nH]c(=O)oc2c1`, the “% Inhibition” value is on record as -13% and the Z score was 1.86.

On to `Cc1cccc(OCC(=O)N2CCN(Cc3ncnn3C)CC2)c1C`, for which the “% Inhibition” value is given as -12% and the Z score came out at 1.33.

In the case of `COc1ccccc1[C@H]1N(c2ccccn2)C(=O)[C@@H]2CCCN21`, the “% Inhibition” value is reported as 4% and the Z score is on record as -0.55.

Take `Cc1nc(CN2C(C)CC3CCCCC32)oc1C` (stereo not drawn): the “% Inhibition” value is reported as -1% and the Z score amounted to 0.16.

Regarding `COc1c(C)[nH]cc(CN(C)c2cc(-n3ccnc3)ncn2)c1=O`, the “% Inhibition” value is listed as -5% and the Z score was found to be 0.97.

Regarding `O=C(NCC12CCN(CC1)CC2)c1cc(F)c(Cl)cc1F`, the “% Inhibition” value is -7% and the Z score worked out at 1.11.

In the case of `CC(C)(C)C1C=CC(NCC2(CO)CCOCC2)CC1` (stereo not drawn), the “% Inhibition” value was -3% and the Z score was 0.65.

On to `Cc1cc(-c2c(C#N)c(N)nc3c2[C@@H]2CC[C@H](C3)N2)oc1C`, for which the “% Inhibition” value is on record as 0% and the Z score turned out to be 0.03.

With `C[C@H]1CN(Cc2ccc(C#N)cc2)CCN1C(=O)Cc1csc(-c2cccnc2)n1`, the “% Inhibition” value was -5% and the Z score is listed as 0.45.

For the molecule `Cc1nnc([C@H](C)NCC23CCC(CC2)N3C(=O)OC(C)(C)C)[nH]1`, the “% Inhibition” value is on record as 13% and the Z score was -1.76.

As for `CC(C)(C)N1C(=O)NC(=O)C2(Cc3ccccc3N3CCN(c4ccccc4)CC32)C1=O` (stereo not drawn), the “% Inhibition” value stood at 4% and the Z score is recorded as -0.53.

As to `CCc1nc([C@H](C)Nc2ccc3oc(=O)[nH]c3c2)oc1-c1ccccc1`, the “% Inhibition” value is recorded as -15% and the Z score turned out to be 1.78.

With `Cc1ccc(C(=O)N2C[C@@H](c3ccccc3)[C@@H]3[C@H]2C2CCN3CC2)c(=O)n1C`, the “% Inhibition” value was 0% and the Z score was -0.05.

In the case of `Clc1snnc1CN1CCC2CCCCC2C1` (stereo not drawn), the “% Inhibition” value is -2% and the Z score came out at 0.23.

Regarding `Cc1nc(NC(=O)N2CCN3CCC[C@H]3C2)ccc1Br`, the “% Inhibition” value came to 0% and the Z score was determined as 0.06.

Take `CC(=O)c1c(O)nc(=O)n(C2CCCCCC2)c1O`: the “% Inhibition” value turned out to be 12% and the Z score is -1.55.

Regarding `CN1CC=C(c2noc(CCC(=O)Nc3nccs3)n2)CC1`, the “% Inhibition” value is -9% and the Z score is listed as 1.7.

Turning to `Brc1cnc(N2Cc3cccnc3C2)nc1`, the “% Inhibition” value is -24% and the Z score stood at 2.72.

Regarding `Cc1cccc(Nc2nc(-c3ccc4c(c3)oc(=O)n4C)cs2)c1`, the “% Inhibition” value is given as -27% and the Z score turned out to be 3.16.

Regarding `O=C(c1ccc(C(F)(F)F)nc1)N1C2CCC1c1cncnc1C2` (stereo not drawn), the “% Inhibition” value is listed as -21% and the Z score worked out at 2.67.

On to `COc1ccc(-c2oc(=O)n(Cc3cccc(OC)c3)c2-c2ccc(OC)cc2)cc1`, for which the “% Inhibition” value is reported as -8% and the Z score was determined as 1.05.

As for `c1coc(CN[C@H]2CN3CCC2CC3)c1`, the “% Inhibition” value was -7% and the Z score turned out to be 1.33.

On to `Fc1ccccc1CCN[C@H]1CCOC1`, for which the “% Inhibition” value is -1% and the Z score was found to be 0.14.

In the case of `Cc1ccc(C(=O)N2[C@H]3CC[C@@H]2c2cnc(C)nc2C3)cn1`, the “% Inhibition” value is listed as 6% and the Z score was -0.91.

In the case of `CCn1nc(C(=O)N2CCC3(CC2)OCCO3)cc1-c1cccc(Cl)c1`, the “% Inhibition” value was 0% and the Z score turned out to be 0.04.

Consider `CCc1ccc(CNC2=NCCN2)cc1`, for which the “% Inhibition” value is listed as -15% and the Z score is on record as 2.03.

In the case of `CN(CCc1ccc2c(c1)CCO2)Cc1cnccn1`, the “% Inhibition” value was -7% and the Z score was 1.05.

With `C=CCn1c(=O)oc2ccc(C(=O)N3CCN(c4cccc(Cl)c4)CC3)cc21`, the “% Inhibition” value is -8% and the Z score was 1.06.

Take `O[C@@H](CNC1CCCC1)c1ccccc1`: the “% Inhibition” value stood at 14% and the Z score is -1.73.

With `CC1CC1c1nc(-c2ccc3oc(=O)[nH]c3c2)no1` (stereo not drawn), the “% Inhibition” value is on record as -8% and the Z score stood at 1.58.

Consider `CCN1Cc2cccnc2N2CCC[C@H]2C1`, for which the “% Inhibition” value is recorded as -5% and the Z score stood at 0.54.

As to `CC1CCN(C[C@H]2C[N@@]3CC[C@H]2C[C@@H]3CNS(=O)(=O)c2ccc(Cl)cc2)CC1`, the “% Inhibition” value worked out at 12% and the Z score was -1.91.

For the molecule `O=C(Nc1cccc(Cl)c1)Oc1ccccc1-c1ccccc1`, the “% Inhibition” value was -6% and the Z score was found to be 0.98.

For `Cc1ccc(S(=O)(=O)Nc2ccc(C(=O)N3CCC(=O)CC3)cc2)cc1C`, the “% Inhibition” value is listed as 6% and the Z score is -1.04.

Consider `O=C1[C@@H]2C[C@@H](CN2)N1c1ccc(F)c(F)c1`, for which the “% Inhibition” value is listed as -10% and the Z score is recorded as 1.79.

In the case of `CNc1nc(C)c(C(=O)N2C[C@H](c3ccccc3)[C@@H]3[C@H]2C2CCN3CC2)s1`, the “% Inhibition” value is -10% and the Z score stood at 0.9.

`COc1cccc2c1OC[C@@]1(C(=O)O)CN(C(=O)c3ccc(Cl)cc3)C[C@@H]21`: the “% Inhibition” value was 2% and the Z score is listed as -0.46.

Take `CCCc1nc(C(N)=O)nn1Cc1c(C)cc(C)nc1OC`: the “% Inhibition” value was determined as 1% and the Z score is -0.15.

As to `Cc1cccc(-n2nnnc2C2(NC3CCCCC3)CCCCC2)c1`, the “% Inhibition” value is reported as -9% and the Z score turned out to be 1.17.

Consider `O=C(O)C1C2CC1CN(Cc1ccccc1)C2` (stereo not drawn), for which the “% Inhibition” value is on record as 4% and the Z score was -0.69.

For `C#CCN(C)C[C@H]1C[N@@]2CC[C@H]1C[C@@H]2CNC(=O)c1ccccc1`, the “% Inhibition” value was 33% and the Z score is listed as -3.75.

For the molecule `COc1cccc(C2=NO[C@H](C(=O)N3CCC4(CC3)OCCO4)C2)c1`, the “% Inhibition” value is given as -3% and the Z score is recorded as 0.49.

With `CCN(CC)C(=O)Oc1ccc2c(ccn2Cc2cc(C)cc(C)c2)c1NC(=O)c1cc(C(F)(F)F)cc(C(F)(F)F)c1`, the “% Inhibition” value is given as -6% and the Z score is on record as 0.85.

Consider `C[C@@H](Cc1c(Cl)cccc1Cl)NC(=O)CCc1nnc[nH]1`, for which the “% Inhibition” value is -7% and the Z score turned out to be 1.22.

For `Cc1cc(N2CCN(C)CC2)nc(C2CC2)n1`, the “% Inhibition” value is given as -12% and the Z score is listed as 1.58.

On to `c1cc2c(c(-c3cnccn3)c1)CCNC2`, for which the “% Inhibition” value was -4% and the Z score is listed as 0.84.

In the case of `CNS(=O)(=O)c1ccc([C@@H]2CC(=O)Nc3cc4oc(=O)[nH]c4cc32)cc1`, the “% Inhibition” value is given as 9% and the Z score is recorded as -0.88.

`CN1CC[C@@H]2CN(C(=O)C3C(C)(C)C3(C)C)C[C@@H]21`: the “% Inhibition” value is on record as -8% and the Z score is 1.13.

As for `CN(C)C(=O)Oc1ccc(OCc2n(C)c3ccccc3[n+]2C)cc1`, the “% Inhibition” value was -11% and the Z score was determined as 2.15.

Turning to `CCCS(=O)(=O)N1C[C@@H]2C[C@H](C1)c1c(-c3ccc4ccccc4c3)ccc(=O)n1C2`, the “% Inhibition” value is -1% and the Z score turned out to be 0.15.

Consider `Cc1ccc2c(CC(=O)N3CCN(C)C[C@@H]3C)c[nH]c2c1`, for which the “% Inhibition” value was -6% and the Z score amounted to 0.71.

With `CCc1ccc(CN2CCN(C)[C@@]3(CCNC(=O)CC3)C2)nc1`, the “% Inhibition” value is -1% and the Z score came out at 0.21.
